Test results: patent publication US20240228567A1 (Zymeworks, published 2024)

B1: Masked IL12 HetFc fusion protein variant 37469 (p40 E86R_K197D) (Fc fusion)
chain 1: [here human IgG1 Fc with changes without letters]SADGGIWELKKDVYVVELDWYPDAPGEMVVLTCDTPEEDGITWTLDQSSEVLGSGKTLTIQVKEFGDAGQYTCHKGGEVLSHSLLLLHKKRDGIWSTDILKDQKEPKNKTFLRCEAKNYSGRFTCWWLTTISTDLTFSVKSSRGSSDPQGVTCGAATLSAERVRGDNKEYEYSVECQEDSACPAAEESLPIEVMVDAVHKLDYENYTSSFFIRDIIKPDPPKNLQLKPLKNSRQVEVSWEYPDTWSTPHSYFSLTFCVQVQGKSKREKKDRVFTDKTSATVICRKNASISVRAQDRYYSSSWSEWASVPCSGGGGSGGGGSGGGGSNLPVATPDPGMFPCLHHSQNLLRAVSNMLQKARQTLEFYPCTSEEIDHEDITKDKTSTVEACLPLELTKNESCLNSRETSFITNGSCLASRKTSFMMALCLSSIYEDLKMYQVEFKTMNAKLLMDPKRQIFLDQNMLAVIDELMQALNFNSETVPQKSSLEEPDFYKTKIKLCILLHAFRIRAVTIDRVMSYLNAS
chain 2: EPKSSDKTHTCPPCPAPEAAGGPSVFLFPPKPKDTLMISRTPEVTCVVVSVSHEDPEVKFNWYVDGVEVHNAKTKPREEQYNSTYRVVSVLTVLHQDWLNGKEYKCKVSNKALPAPIEKTISKAKGQPREPQVYVLPPSRDELTKNQVSLLCLVKGFYPSDIAVEWESNGQPENNYLTWPPVLDSDGSFFLYSKLTVDKSRWQQGNVFSCSVMHEALHNHYTQKSLSLSPGGGGGSGGGGSGGGSGGGSGGGGSGGGGSQVQLVESGGGVVQPGRSLRLSCAASGFTFSSYGMHWVRQAPGKGLEWVAFIRYDGSNKYYADSVKGRFTISRDNSKNTLYLQMNSLRAEDTAVYYCKTHGSHDNWGQGTMVTVSSGGSGGGSGGGSGGGSGGGSGQSVLTQPPSVSGAPGQRVTISCSGSRSNIGSNTVKWYQQLPGTAPKLLIYYNDQRPSGVPDRFSGSKSGTSASLAITGLQAEDEADYYCQSYDRYTHPALLFGTGTKVTVL
B2: Masked IL12 HetFc fusion protein variant 37490 (p40 K84I_E86R_D93H) (Fc fusion)
chain 1: [here human IgG1 Fc with changes without letters]SADGGIWELKKDVYVVELDWYPDAPGEMVVLTCDTPEEDGITWTLDQSSEVLGSGKTLTIQVKEFGDAGQYTCHKGGEVLSHSLLLLHIKRDGIWSTHILKDQKEPKNKTFLRCEAKNYSGRFTCWWLTTISTDLTFSVKSSRGSSDPQGVTCGAATLSAERVRGDNKEYEYSVECQEDSACPAAEESLPIEVMVDAVHKLKYENYTSSFFIRDIIKPDPPKNLQLKPLKNSRQVEVSWEYPDTWSTPHSYFSLTFCVQVQGKSKREKKDRVFTDKTSATVICRKNASISVRAQDRYYSSSWSEWASVPCSGGGGSGGGGSGGGGSNLPVATPDPGMFPCLHHSQNLLRAVSNMLQKARQTLEFYPCTSEEIDHEDITKDKTSTVEACLPLELTKNESCLNSRETSFITNGSCLASRKTSFMMALCLSSIYEDLKMYQVEFKTMNAKLLMDPKRQIFLDQNMLAVIDELMQALNFNSETVPQKSSLEEPDFYKTKIKLCILLHAFRIRAVTIDRVMSYLNAS
chain 2: B1 chain 2
B3: Masked IL12 HetFc fusion protein variant 37472 (p40 K84I_E86R) (Fc fusion)
chain 1: [here human IgG1 Fc with changes without letters]SADGGIWELKKDVYVVELDWYPDAPGEMVVLTCDTPEEDGITWTLDQSSEVLGSGKTLTIQVKEFGDAGQYTCHKGGEVLSHSLLLLHIKRDGIWSTDILKDQKEPKNKTFLRCEAKNYSGRFTCWWLTTISTDLTFSVKSSRGSSDPQGVTCGAATLSAERVRGDNKEYEYSVECQEDSACPAAEESLPIEVMVDAVHKLKYENYTSSFFIRDIIKPDPPKNLQLKPLKNSRQVEVSWEYPDTWSTPHSYFSLTFCVQVQGKSKREKKDRVFTDKTSATVICRKNASISVRAQDRYYSSSWSEWASVPCSGGGGSGGGGSGGGGSNLPVATPDPGMFPCLHHSQNLLRAVSNMLQKARQTLEFYPCTSEEIDHEDITKDKTSTVEACLPLELTKNESCLNSRETSFITNGSCLASRKTSFMMALCLSSIYEDLKMYQVEFKTMNAKLLMDPKRQIFLDQNMLAVIDELMQALNFNSETVPQKSSLEEPDFYKTKIKLCILLHAFRIRAVTIDRVMSYLNAS
chain 2: B1 chain 2

Biological target: IL12 receptor on HEK reporter cells stably transfected with genes for the IL12 receptor (UniProt P42701 24-662; Q99665 24-862)
Test: cell-based or functional assay

Row | Binder | EC50, IL12 RGA, repeat 1 | EC50, IL12 RGA, repeat 2
1 | B1 | 27.8 nM | 18.7 nM
2 | B2 | 4.28 nM | 3.07 nM
3 | B3 | 2.54 nM | 3.01 nM
